The assay relates to 422866-222-R5-J1-PDC spheroid viability. The assay is described as follows: Anticancer human tumor 422866-222-R5-J1-PDC patient-derived pancreatic adenocarcinoma cell line growth inhibition [CLK]. The conditions noted are these: stronger effect = lower value, spheroids with HUVEC and MSC. From the text:
A high-throughput screen of multi-cell type tumor spheroids was designed to identify active combinations of […] and targeted small molecules. Complex spheroids include a stromal component modeled by human endothelial cells (HUVEC) and fibroblasts modeled by human mesenchymal stem cells (MSCs). The concentration ranges selected for each drug and investigational agent were based upon clinically achievable concentrations if the clinical Cmax of the agent was known.
Compounds. The drugs and investigational agents: cirtuvivint (SM08502; NSC835563), CC-671 (NSC850746), vemurafenib (NSC761431), tapotoclax (NSC804041), sotorasib (NSC818433), adagrasib (NSC831453), MRTX-1133 (NSC836407), BAY2416964 (NSC825713), copanlisib (NSC816437), inavolisib (NSC800729), abemaciclib (NSC768073), osimertinib (NSC779217), entinostat (NSC756642), eltanexor (KPT-8602, NSC794443), venetoclax (NSC766270), ceralasertib (NSC777638), bortezomib (NSC756655), olaparib (NSC753686), talazoparib (NSC767125), alisertib (NSC759677), peposertib (NSC802822), gemcitabine (NSC613327), 5-fluorouracil (NSC19893), SN-38 (NSC673596), oxaliplatin (NSC266046), paclitaxel (NSC125973), and doxorubicin (NSC123127), were obtained from the National Cancer Institute (NCI) Developmental Therapeutics Program Chemical Repository. The FDA-approved anticancer drug set is available from the Developmental Therapeutics Program at https://dtp.cancer.gov/organization/dscb/obtaining/available plates.htm. […] The stock solutions were prepared in dimethyl sulfoxide (DMSO, Sigma-Aldrich, St. Louis, MO, cat. D2650), except for the platinum complexes which were prepared in saline (Quality Biological, Gaithersburg, MD, cat. 114-055-101), at 800-fold the tested concentration and stored at -70 degrees C prior to their use. All drugs and investigational agents were tested over a range starting from a high concentration at or near the clinical Cmax and decreasing in half-log increments. If the clinical Cmax for an agent had not been determined, the highest concentration tested was 10 microM.
Cell Culture. All cells were maintained in an incubator at 37 degrees C and 5% CO2 with 95% humidity. The PDC lines were cultured according to standard operating procedures established by the NCI PDMR. Briefly, all PDCs were thawed and cultured in Matrigel-coated flasks prepared with a working solution of 1X Ham's F-12 nutrient mix, without supplementation (Invitrogen, Waltham, MA, cat. 11765054), 100 U/mL penicillin-streptomycin (Invitrogen, cat. 15140122), and 2.5% Matrigel (Corning Inc., Corning, NY, cat. 354248) for the first three passages. […]

Each structure is given as a SMILES string. Some entries of the source have several records that differ or are many. The other results are left out here. An entry can have further records. Values that stand side by side are repeated measurements in other runs, samples, wells, individuals or studies. Brackets with × count equal records among those shown.
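Further: spheroids exposed to agents for seven days before readout.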

For the compound `CNC(=O)c1ccc(Nc2nc(OC3CCCC3)c3c(-c4ccc5nc(C)oc5c4)c[nH]c3n2)c(OC)c1`, the viability, T/C (compound alone 10 µM) is 65.7, 78.5, 71.1, 71.3, 73.7, 63.7, 67.9, 65, 68.1, 68.2, 62.2, 87.5%.
Turning to `CN1CCN(c2cc(C(=O)Nc3cc4cc(-c5cnn(C)c5)ccc4cn3)ccn2)CC1`, the viability, T/C (compound alone 0.0316 µM) was 100, 106 (2×), 95.9, 98.7, 105, 86.1, 95.3, 90.3, 110, 114, 107%; the viability, T/C (compound alone 0.1 µM) is 103 (2×), 105 (2×), 112, 92.9, 90.9, 102, 111, 117, 116, 101%; the viability, T/C (compound alone 0.316 µM) is 82.9, 91.2, 80.5, 88.2, 92.4, 89.2, 90, 89, 93.9, 105 (2×), 109%.

The record behind these values is PubChem BioAssay AID2060603 (Molecular Pharmacology Branch, DTP, NCI, 2025).
